# Results are given in words; binding and its absence hold for the method and conditions named. For some assays here: In cells and extracts the contact can be indirect. Some results given as binding are weak or reduced against the parent protein; the word gives no strength. For some assays here: Sequences can lack the tags named with a protein.
# T1: WzyEPA-distrepII (Pectobacterium atrosepticum, UniProt Q6CZF1 1-463)
# T1 construct: WzyE, ECA polymerase, Pectobacterium atrosepticum SCRI 1043 (ATCC BAA-672); cloned into a proprietary vector constructed by Huanting Liu; Predicted 57 kDa; the distrepII tag is TEV protease-cleavable; source: DDM-solubilised membranes; not shown: distrepII, C-terminal, kept
# T1 sequence (looked up): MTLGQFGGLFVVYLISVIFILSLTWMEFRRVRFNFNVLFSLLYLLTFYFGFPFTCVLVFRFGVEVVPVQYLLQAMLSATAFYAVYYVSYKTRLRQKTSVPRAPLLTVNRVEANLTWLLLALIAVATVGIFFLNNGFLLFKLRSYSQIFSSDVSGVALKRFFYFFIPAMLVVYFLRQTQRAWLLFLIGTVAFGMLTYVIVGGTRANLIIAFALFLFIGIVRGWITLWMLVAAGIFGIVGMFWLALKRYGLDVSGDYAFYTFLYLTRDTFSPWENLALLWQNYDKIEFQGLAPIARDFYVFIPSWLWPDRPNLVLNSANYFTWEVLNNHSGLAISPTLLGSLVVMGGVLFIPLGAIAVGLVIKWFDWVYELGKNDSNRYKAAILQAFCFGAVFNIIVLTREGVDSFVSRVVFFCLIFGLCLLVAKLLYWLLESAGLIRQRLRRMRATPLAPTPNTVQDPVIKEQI
# B1: GST-WzzEPA (protein, UniProt Q6CZE3 1-348)
# chain: MKSENLSTGNALIDNELDIRGLFRLLWRGKVWPIAIGLLFAVVALGYSYLVKQEWGATSITDKPTVNMLGGYYSQQQFLRNLDARSFSSPQPEQPSISAGAYDEFIMQLAAYDTRRDFWLQTDYYKQRLEGDEKADAALLDELVNNIQFTARDDGKKTNDSVKLVAETSSDSNTLLRQYVVFASQRAANHLNEEIKGAWAARTIFMKSQIKRQEAVAKAIYDREVRSVELALKIAQQQGISRSQTDTPADEIPASEMFLLGRPMLQARLETLQTSGPHYELDYDQNRAMLATLNVGPTLEASFQTYRYLRTPEEPVKRDSPRRAFLMVMWGAIGVLVGAGVALARRLR
# B2: His6-WzzEPA (natural protein, Pectobacterium atrosepticum, UniProt Q6CZE3 1-348, looked up)
# chain: B1 chain
# notes: WzzE, polysaccharide co-polymerase of enterobacterial common antigen biosynthesis, Pectobacterium atrosepticum SCRI 1043 (ATCC BAA-672); cloned into pEHisTEV; Predicted 42 kDa; His6 tag is TEV protease-cleavable; The methods say that Wzz ran as a double band and that the lower band was not seen by the anti-His antibody (partly untagged); Isolated Wzz may have various oligomeric states; octamer in …
# B3: mCherry-WzzEPA (protein, UniProt Q6CZE3 1-348)
# chain: B1 chain
# Experiments:
# [1] = target: WzyEPA-His10 (Pectobacterium atrosepticum) (UniProt Q6CZF1); test: pull-down; tandem affinity co-purification of co-expressed GST-WzzEPA and WzyEPA-His10 from DDM-solubilised E. coli membranes: glutathione sepharose 4B then cobalt resin, and the reverse order (nickel resin then glutathione sepharose 4B); batch, 4°C, 0.026% DDM
# WzyEPA-distrepII [2] = target: T1, WzyEPA-distrepII; test: native gel or EMSA; blue-native PAGE (Bis-Tris 4-16%) of the affinity-purified co-expressed complex, western immunoblot with anti-His and anti-strep tag II; both purified
# WzyEPA-distrepII [3] = target: T1, WzyEPA-distrepII; test: pull-down; tandem affinity co-purification of co-expressed His6-WzzEPA and WzyEPA-distrepII from DDM-solubilised E. coli membranes: cobalt or Talon resin and streptactin or streptactinXT resin, in either order; batch, 4°C, 0.026% DDM; SDS-PAGE and western blot
# WzyEPA-distrepII [4] = target: T1, WzyEPA-distrepII; test: SEC; superose 6 10/300; co-expressed and co-purified complex compared with the individually expressed and purified proteins; both purified
# [5] = target: PglL-distrepII-mClover3 (Neisseria meningitidis) (UniProt G1FG65); test: FRET or BRET; in vivo FRET in suspensions of E. coli C43(DE3) cells in PBS; mClover3 donor, mCherry acceptor; 488-14/620-20 nm; corrected for background and bleed-through
binder,measurement,setting,value
B1,binding,[1],binds
B2,binding,WzyEPA-distrepII [2],binds
same,binding,WzyEPA-distrepII [3],binds
same,binding,WzyEPA-distrepII [4],binds
B3,binding,[5],no binding
